# According to PubChem BioAssay AID504333 (National Center for Advancing Translational Sciences (NCATS), 2011):
# Among all 360,000 compounds or so, about 16,000 (4.4%) were called active. This list was built around the results that the source calls inconclusive (neither active nor inactive); the mix of calls is not that of the screen. Calls follow the shape of the dose curve; as a rule, active = well fitted inhibition curve with a large enough effect; inconclusive = small, poorly fitted or top-dose-only effect; inactive = no such curve, though single readings can be large or run the other way. A potency beside an inconclusive call is a rough fit, not a confirmed value.
# Target: Bromodomain adjacent to zinc finger domain protein 2B (Homo sapiens) (UniProt Q9UIF8)
# Chain of UniProt Q9UIF8 (Q9UIF8 whole entry, looked up, the tested form may be a part): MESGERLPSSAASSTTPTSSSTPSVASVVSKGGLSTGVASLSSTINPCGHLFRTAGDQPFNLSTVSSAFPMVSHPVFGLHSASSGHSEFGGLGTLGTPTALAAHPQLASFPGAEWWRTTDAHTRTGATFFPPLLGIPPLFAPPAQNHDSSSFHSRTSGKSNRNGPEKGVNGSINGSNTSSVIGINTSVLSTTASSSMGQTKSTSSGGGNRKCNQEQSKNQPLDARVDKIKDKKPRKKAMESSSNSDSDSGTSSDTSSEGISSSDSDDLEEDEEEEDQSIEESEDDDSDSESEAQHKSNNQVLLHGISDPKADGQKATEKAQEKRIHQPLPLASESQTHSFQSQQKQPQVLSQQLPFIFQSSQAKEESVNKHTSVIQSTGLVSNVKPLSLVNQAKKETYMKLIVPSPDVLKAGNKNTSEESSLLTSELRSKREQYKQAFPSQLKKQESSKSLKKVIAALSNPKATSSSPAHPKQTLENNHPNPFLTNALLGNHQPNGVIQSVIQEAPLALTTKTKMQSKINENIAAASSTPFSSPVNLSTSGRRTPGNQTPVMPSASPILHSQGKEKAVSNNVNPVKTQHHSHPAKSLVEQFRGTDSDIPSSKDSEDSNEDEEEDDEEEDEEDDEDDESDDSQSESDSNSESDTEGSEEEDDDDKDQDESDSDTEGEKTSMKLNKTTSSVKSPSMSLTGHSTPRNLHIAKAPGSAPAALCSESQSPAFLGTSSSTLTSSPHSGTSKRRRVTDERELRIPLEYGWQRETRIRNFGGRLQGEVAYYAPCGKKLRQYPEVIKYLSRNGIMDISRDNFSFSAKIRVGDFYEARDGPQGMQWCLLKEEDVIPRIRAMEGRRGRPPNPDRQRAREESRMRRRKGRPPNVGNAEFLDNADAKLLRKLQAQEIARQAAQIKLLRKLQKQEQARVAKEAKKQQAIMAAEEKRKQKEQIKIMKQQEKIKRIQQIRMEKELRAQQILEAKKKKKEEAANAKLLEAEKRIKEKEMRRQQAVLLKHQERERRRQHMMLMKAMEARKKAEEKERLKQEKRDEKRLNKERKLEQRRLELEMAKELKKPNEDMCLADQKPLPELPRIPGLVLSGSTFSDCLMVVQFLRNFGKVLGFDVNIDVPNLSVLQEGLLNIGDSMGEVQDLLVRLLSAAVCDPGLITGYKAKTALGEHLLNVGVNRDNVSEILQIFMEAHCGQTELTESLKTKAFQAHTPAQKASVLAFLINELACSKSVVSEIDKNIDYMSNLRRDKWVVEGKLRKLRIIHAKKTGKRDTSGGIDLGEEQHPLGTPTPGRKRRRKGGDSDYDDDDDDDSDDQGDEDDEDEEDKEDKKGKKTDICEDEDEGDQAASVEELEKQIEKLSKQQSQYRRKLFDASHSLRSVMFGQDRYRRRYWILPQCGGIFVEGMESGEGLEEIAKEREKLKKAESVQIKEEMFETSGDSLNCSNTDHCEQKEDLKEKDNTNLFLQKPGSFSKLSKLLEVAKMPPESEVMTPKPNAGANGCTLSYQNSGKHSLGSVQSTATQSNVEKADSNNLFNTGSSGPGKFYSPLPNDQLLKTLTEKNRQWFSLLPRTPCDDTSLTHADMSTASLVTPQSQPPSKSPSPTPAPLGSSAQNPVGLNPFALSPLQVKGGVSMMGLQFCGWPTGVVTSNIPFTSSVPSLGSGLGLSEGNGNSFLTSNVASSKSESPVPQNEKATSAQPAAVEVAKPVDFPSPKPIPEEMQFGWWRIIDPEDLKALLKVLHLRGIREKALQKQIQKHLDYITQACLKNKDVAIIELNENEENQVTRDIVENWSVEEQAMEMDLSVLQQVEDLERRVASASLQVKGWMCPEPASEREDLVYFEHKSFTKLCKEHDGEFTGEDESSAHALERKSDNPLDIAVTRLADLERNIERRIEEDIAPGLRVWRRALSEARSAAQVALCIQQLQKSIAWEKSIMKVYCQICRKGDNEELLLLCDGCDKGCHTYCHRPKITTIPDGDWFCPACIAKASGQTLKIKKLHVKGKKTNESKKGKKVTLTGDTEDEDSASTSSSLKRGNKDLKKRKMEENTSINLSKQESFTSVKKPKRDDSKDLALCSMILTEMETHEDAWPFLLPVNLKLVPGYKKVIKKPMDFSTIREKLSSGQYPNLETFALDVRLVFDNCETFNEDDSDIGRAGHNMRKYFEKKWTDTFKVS
# Assay: qHTS Assay for Inhibitors of BAZ2B; also: nearly all actives have a fitted effect of over 60% in size
# Conditions: AlphaScreen BAZ2B-H3K14Ac peptide displacement; activity change, negative = inhibition: at 114 µM (top of the series)
# Method in brief: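 In this displacement format the biotinylated H3(5-23) peptide acetylated at Lys14 serves as ligand at 50 nM, with BAZ2B at 50 nM in PBS pH 7.4 containing 0.01% Tween-20. Donor and acceptor beads are 10 ug/mL final.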
# % is scaled to controls: 0 for no effect and ±100 for the full control effect; potency is read from the fitted curve at half-maximal effect; tags tell the direction and shape of the fitted curve.
SMILES,Potency,"activity change, negative = inhibition"
O=C(O)c1cc(S(=O)(=O)N2CCN(c3ccccn3)CC2)ccc1Cl,"inconclusive: 89.1 µM [inhibitor, single point]",
Cc1ccc(Oc2ncccc2NC(=O)CCCC(=O)O)c2c1CCC2,"inconclusive: 89.1 µM [inhibitor, single point]",
COC(=O)c1ccc(NC(=O)c2cccc(OC)c2)cc1,"inconclusive: 89.1 µM [inhibitor, single point]",
CC(=O)Nc1ccc(NC(=O)COC(=O)c2ccccn2)cc1,active: 50.1 µM,
CCc1cccc(NC(=O)Cn2cccc2)c1,"inconclusive: 50.1 µM [inhibitor, partial curve]",
Cc1ccc(CNC(=O)C23CN(Cc4ccccc4)CC2C(c2ccc([N+](=O)[O-])cc2)=NO3)o1 (centres undefined),"inconclusive: 39.8 µM [inhibitor, partial curve]",
CCCc1nnc(NC(=O)CCC(=O)N2CCN(Cc3cc(Cl)ccc3OC)CC2)s1,,inactive: -33.8%
CC(OC(=O)c1ccc(Cl)nc1)C(=O)NC1CCCC1 (centres undefined),,inactive: 11.8%
Cc1cccc(-c2nc(CN3CCCC(C(=O)N4CCN(c5cc(Cl)ccc5C)CC4)C3)c(C)o2)c1 (centres undefined),"inconclusive: 20 µM [inhibitor, full curve]",
CCOc1ccc(CN2CCN(C(=O)c3ccccc3)CC2)cc1,"inconclusive: 89.1 µM [inhibitor, single point]",
COc1ccccc1N1CCN(CCCOc2ccc(F)cc2)CC1,"inconclusive: 28.2 µM [inhibitor, single point]",
CC(=O)Nc1ccc(S(=O)(=O)NC2(C(F)(F)F)C(=O)Nc3c2c(=O)[nH]c(=O)n3-c2cccc(Cl)c2)cc1 (centres undefined),"inconclusive: 89.1 µM [inhibitor, single point]",
N#Cc1ccccc1S(=O)(=O)N1CCN(CC(O)COc2ccccc2F)CC1 (centres undefined),active: 28.2 µM,
N#CCC(=O)NN=C1CCCCCCCCCCC1,"inconclusive: 89.1 µM [inhibitor, single point]",
CCOC(=O)c1c(NC(=O)CSc2nncs2)sc(C)c1C,"inconclusive: 89.1 µM [inhibitor, single point]",
CC(C)n1c(=O)[nH][nH]c1=S,active: 50.1 µM,
CCOC(=O)CCCCC(=O)c1[nH]c(=O)[nH]c1CSc1nnc2c3ccccc3n(C(C)C)c2n1,"inconclusive: 79.4 µM [inhibitor, single point]",
Cc1cc(-c2n[nH]c(=S)n2/N=C/c2c[nH]c3ccccc23)n[nH]1,,inactive: -22.3%
COc1ccc(NC(=O)c2c(C)oc3ccc(O)c(CN4CCC(C)CC4)c23)cc1Cl,"inconclusive: 39.8 µM [inhibitor, partial curve]",
O=C(Nc1ccc(Cc2ccncc2)cc1)c1ccc([N+](=O)[O-])o1,"inconclusive: 79.4 µM [inhibitor, single point]",
COc1cccc(NC(=O)CN2C(=O)c3cccc4cccc2c34)c1,,inactive: 2.36%
Cc1ccccc1CN1CCN(Cc2ccccc2C(F)(F)F)CC1,active: 28.2 µM,
O=C(CSc1nc(-c2ccccc2)nn1C(=O)c1ccccc1)Nc1cccc([N+](=O)[O-])c1,active: 56.2 µM,

SMILES,Potency,"activity change, negative = inhibition"
COc1cc(C(=O)NCc2nnc(SCC(=O)Nc3nccs3)o2)cc(OC)c1OC,active: 44.7 µM,
Cn1c2ccccc2c(=O)c2ccc(-c3ccc4c(c3)OCO4)cc21,"inconclusive: 79.4 µM [inhibitor, single point]",
COc1ccc(NC(=O)c2cc(-c3ccncc3)nc3ccc(Br)cc23)cc1OC,,inactive: -25.1%
CCN(CC)S(=O)(=O)c1ccc(C)c(NC(=S)N2CCN(C/C=C/c3ccccc3)CC2)c1,"inconclusive: 70.8 µM [inhibitor, partial curve]",
COc1ccc(Br)cc1CNC(=O)CCCc1cn(C)c2ccccc12,"inconclusive: 28.2 µM [inhibitor, full curve]",
CCCCC1=CC2=CC(=O)C(C)(OC(=O)CC)C(=O)C2=CN1C(CO)CO (centres undefined),,inactive: -0.964%
CCSc1nn(CC(=O)Nc2cccc(CC)c2)c(N)c1S(=O)(=O)c1ccccc1,"inconclusive: 70.8 µM [inhibitor, single point]",
COc1cccc(N=C2NC(=O)/C(=C/c3cc([N+](=O)[O-])ccc3O)S2)c1,active: 56.2 µM,
O=C(Oc1cccc2cccnc12)c1cccc(-n2cnnn2)c1,"inconclusive: 50.1 µM [inhibitor, partial curve]",
COCCCNC(=O)C1CCN(Cc2cc3ccccc3n2Cc2ccccc2C)CC1,"inconclusive: 79.4 µM [inhibitor, single point]",
COc1ccccc1C(CNC(=O)c1cccc(NS(=O)(=O)c2ccc(C)c(F)c2)c1)N1CCCC1 (centres undefined),"inconclusive: 79.4 µM [inhibitor, single point]",
CC(C)(C)OC(=O)N1CCC(c2c(C(=O)NCc3ccccc3)cnn2-c2cccc(F)c2)CC1,,inactive: 7.57% [at 57.1 µM]
CC(C)[C@H](NS(=O)(=O)/C=C/c1ccccc1)C(=O)OCC(=O)NC(N)=O,,inactive: 8.76%
COc1ccccc1NC(=O)Cn1c(O)c(N=NC(=O)c2ccccc2O)c2ccccc21,active: 56.2 µM,
O=C(O)c1ccccc1-c1ccc(/C=C/c2cc(C(F)(F)F)[nH]c(=O)n2)o1,"inconclusive: 79.4 µM [inhibitor, partial curve]",
COc1ccc(N2CCN(C(=O)c3cc(-c4cccs4)nc4ccccc34)CC2)cc1,"inconclusive: 14.1 µM [inhibitor, full curve]",
Cc1ccc(N=Cc2c(C)[nH]n(-c3nc4ccccc4[nH]3)c2=O)cc1,"inconclusive: 89.1 µM [inhibitor, single point]",
COC(=O)[C@@]1(Cc2ccc(F)cc2)[C@H]2c3cc(C(=O)N(C)C)n(Cc4nc5ccccc5[nH]4)c3C[C@H]2CN1C(=O)c1ccccc1,"inconclusive: 39.8 µM [inhibitor, partial curve]",
C[n+]1ccccc1C1CCCC/C1=N\NC(N)=S (centres undefined),"inconclusive: 89.1 µM [inhibitor, single point]",
Cc1ccc(S(=O)(=O)N2CC(O)C[C@H]2C(=O)OCC(=O)Nc2ccc(N3CCCCC3)cc2)cc1C (some centres undefined),active: 39.8 µM,
CCC12CCCN3CCC4(C(=C(C(=O)OC)C1)Nc1ccccc14)C32 (centres undefined),"inconclusive: 70.8 µM [inhibitor, single point]",
COc1cccc(-c2nc(CS(=O)(=O)CC(=O)NCCCOC(C)C)c(C)o2)c1,,inactive: -5.58%
N=C1C(c2nc3ccccc3s2)=C(O)CN1C1CCCCC1,,inactive: -0.16%

SMILES,Potency,"activity change, negative = inhibition"
O=C(Nc1nnc(-c2ccncc2)o1)c1ccccc1,active: 10 µM,
CCOC(=O)c1c(C)[nH]c(C=C2C(=O)CCCC2=O)c1O,"inconclusive: 56.2 µM [inhibitor, partial curve, poor fit]",
CSc1cccc(NC(=O)c2cnn(-c3ccc(F)cc3)c2-n2cccc2)c1,,inactive: -15.4%
Cc1ccc(-c2nc3c(c(SCc4ccc(Br)cc4)n2)Cc2c(CO)cnc(C)c2O3)cc1,"inconclusive: 79.4 µM [inhibitor, single point]",
CN1c2ccccc2C2(C)CCCC3=Cc4cc([N+](=O)[O-])cc([N+](=O)[O-])c4OC312 (centres undefined),"inconclusive: 7.94 µM [inhibitor, full curve]",
COc1ccc(Nc2nc(C(=O)N3CCc4ccccc4C3)cs2)cc1,"inconclusive: 89.1 µM [inhibitor, single point]",
CCC(C)Nc1nc(N)c([N+](=O)[O-])c(Nc2cc(OC)ccc2OC)n1 (centres undefined),active: 17.8 µM,
O=C(c1ccc2c(c1)N(Cc1ccccc1)C(=O)c1ccccc1S2)N1CCCC1,"inconclusive: 89.1 µM [inhibitor, single point]",
COc1cc(C)cc(C(=O)O)c1C1=C(O)c2cccc(O)c2C(=O)C1=O,active: 56.2 µM,
COc1ccc(Cl)c2sc(NC(=O)c3ccc(S(=O)(=O)N4CCOCC4)cc3)nc12,,inactive: 3.11%
Cc1ccc(NS(=O)(=O)c2cc([N+](=O)[O-])ccc2NNC(=S)Nc2cc(C)ccc2C)c(C)c1,active: 31.6 µM,
COc1cccc(NS(=O)(=O)c2ccc3c(c2)n(C)c(=O)n3C)c1,"inconclusive: 89.1 µM [inhibitor, single point]",
COc1ccccc1NC1=Nc2cccc3cccc1c23,"inconclusive: 39.8 µM [inhibitor, partial curve]",
Cn1nc(-c2ccccc2)c(C(=O)Nc2ccc(Cl)cc2)c1Cl,,inactive: -28.7%
CCCN(CCC)CCCNC(=S)Nc1ccc2nc(N3CCN(C)CC3)cc(C)c2c1,,inactive: -25.3%
O=C(O)c1ccc(NC(=O)c2ccc3c(c2)C(=O)N(c2ccccc2)C3=O)cc1,,inactive: -20.4%
O=C(c1ccc(Br)o1)N1CCN(C/C=C/c2ccccc2)CC1,"inconclusive: 44.7 µM [inhibitor, partial curve]",
C#CCOCCOCCOCCNc1nc(N2CCN(C(=O)CCCCCCCCCCNC(=O)[C@@H](CCSC)n3cc(CCO)nn3)CC2)nc(N2CCN(C(=O)CCCCCCCCCCNC(=O)[C@H]([C@@H](C)CC)n3cc(CCCCN=C(N)N)nn3)CC2)n1,active: 50.1 µM,
O=C(O)c1ccc(Cl)c(S(=O)(=O)Nc2cccc(C(=O)Nc3cccc(C(F)(F)F)c3)c2)c1,"inconclusive: 56.2 µM [inhibitor, partial curve]",
CCOc1ccccc1NC(=O)Nc1ccc2c(c1)OCO2,"inconclusive: 31.6 µM [inhibitor, partial curve]",
CC(=O)NCC1CCCN(Cc2cn(-c3ccccc3F)nc2-c2cc(C)sc2C)C1 (centres undefined),,inactive: -9.31%
c1ccc(CNCCN2CCNCC2)nc1,active: 15.8 µM,
CC(=O)N1CCc2cc(Br)cc(S(=O)(=O)CCC(=O)N3CCN(c4ccc(F)cc4)CC3)c21,"inconclusive: 89.1 µM [inhibitor, single point]",
